Measurements from PubChem BioAssay AID902 (National Center for Advancing Translational Sciences (NCATS), 2007).
Screen size: about 130,000 compounds; about 1,900 (1.5%) were called active. The shares of active, inactive and inconclusive entries below differ from those in the screen. Calls come from the whole dose curve; as a rule, active = well fitted cell-killing curve with a large enough effect; inconclusive = small, poorly fitted or top-dose-only effect; inactive = no such curve, though single readings can be large or run the other way. A potency beside an inconclusive call is a rough fit, not a confirmed value.
% is set by controls: 0 for no effect and ±100 for the full control effect; potency is the fitted concentration of half-maximal effect; tags give direction and shape of the fitted curve.

Assay: qHTS Screen for Compounds that Selectively Target Cancer Cells with p53 Mutations: Cytotoxicity of p53ts Cells at the Nonpermissive Temperature; note: nearly all actives have a fitted effect of over 55% in size
Conditions: H1299-p53A138V viability at 39C, ATP luminescence, 24 h; activity change, negative = cell killing: at 46.1 µM (top of the series)
With `Cc1cc(C)c(S(=O)(=O)Nc2ccc(-c3ccc(N4CCCCC4)nn3)cc2)c(C)c1` the Potency was active: 7.94 µM.
With `O=C1C(C=NCc2ccco2)=C(O)c2ccccc21` the “activity change, negative = cell killing” value was inactive: -28.6%.
For `O=C(Nc1ccc(-c2cn3cccnc3n2)cc1)c1ccccc1F`, the Potency was inconclusive: 12.6 µM [cytotoxic, partial curve].
For `COc1ccc(-c2cc3nc(C)cc(NCCO)n3n2)cc1`, the Potency was inconclusive: 12.6 µM [cytotoxic, single point].
With `COc1ccccc1NC(=O)Cn1c(=O)n(CCc2ccccc2)c(=O)c2sc3ccccc3c21` the Potency was inconclusive: 0.398 µM [cytotoxic, full curve, poor fit].
In the case of `CCOC(=O)C1=C(N)OC2=C(C(=O)CC(C)(C)C2)C1c1cccnc1` (configuration not stated), the “activity change, negative = cell killing” value is reported as inactive: 0.16%.
With `CNc1cc(OC)c(C(=O)N[C@@H]2CCN(Cc3ccccc3)[C@H]2C)cc1Cl` the Potency was inconclusive: 15.8 µM [cytotoxic, partial curve].
With `O=C(NCc1nc2ccccc2[nH]1)c1ccc(Cl)c(S(=O)(=O)N2CCCC2)c1` the “activity change, negative = cell killing” value was inactive: 3.23%.
With `Cc1ccc(N2C(=O)c3n[nH]c(C)c3C2c2ccco2)cc1` (configuration not stated) the Potency was inconclusive: 15.8 µM [cytotoxic, partial curve].
In the case of `CCC1CN(C(=O)N2CCC(C(=O)NCCCc3ccccc3)CC2)c2ccccc2O1` (configuration not stated), the Potency is reported as inconclusive: 31.6 µM [cytotoxic, single point].
With `CCN1CCN(c2cc(C)c3cc(NC(=O)c4cc(Br)ccc4Cl)ccc3n2)CC1` the Potency was active: 12.6 µM.
For `Cc1ccc(NC(=O)CSc2ncc3c(n2)-c2ccccc2N(C)S3(=O)=O)c(Cl)c1`, the Potency was inconclusive: 3.98 µM [cytotoxic, partial curve].
With `CCOc1ccc(NS(=O)(=O)c2ccc3[nH]cc(C(=O)NC(C)CC)c(=O)c3c2)cc1` (configuration not stated) the Potency was inconclusive: 25.1 µM [cytotoxic, single point].
With `Cc1ccc(-c2nc(C)c(CCNC(=O)C(=O)Nc3ccc(C)c(Cl)c3)s2)cc1` the Potency was inconclusive: 0.0079 µM [cytotoxic, full curve, poor fit].
With `O=C1C(=O)c2ccccc2C(O)=C1C(C1=C(O)c2ccccc2C(=O)C1=O)c1ccc(Cl)cc1` the Potency was inconclusive: 6.31 µM [cytotoxic, single point].
In the case of `Cc1ccccc1OCCCn1c(CCNC(=O)C2CCCCC2)nc2ccccc21`, the Potency is reported as active: 15.8 µM.
With `Cc1ccc(NC(=O)c2sc3nc4n(c(=O)c3c2C)CCCCC4)c(Br)c1` the activity change, negative = cell killing was inconclusive: -30.6% [cytotoxic].
For `COc1ccc2[nH]c(=O)c(CN(CC3CCCO3)C(=O)Nc3ccc(F)cc3)cc2c1` (configuration not stated), the Potency was inconclusive: 12.6 µM [cytotoxic, partial curve].
For `C=C(C)COc1ccc(-c2nc(N)ncc2Oc2ccc(OC)cc2)c(O)c1`, the Potency was inconclusive: 31.6 µM [cytotoxic, single point].
With `CCCS(=O)(=O)NCCc1csc2nc(-c3ccc(C)cc3)nn12` the Potency was inconclusive: 0.0063 µM [cytotoxic, full curve, poor fit].
In the case of `COc1ccc(OC)c(CNC(=O)c2ccc(Sc3ccc(Cl)cc3)c(NC(C)=O)c2)c1`, the Potency is reported as inconclusive: 12.6 µM [cytotoxic, partial curve, poor fit].
In the case of `O=C1CC(c2nc3ccccc3n2CCC2CCCCC2)CN1c1ccccc1Cl` (configuration not stated), the Potency is reported as inconclusive: 31.6 µM [cytotoxic, single point].
In the case of `Cn1c(=O)oc2cc(S(=O)(=O)N3CCCC(C(=O)N4CCN(c5ccc(Cl)cc5)CC4)C3)ccc21` (configuration not stated), the “activity change, negative = cell killing” value is reported as inactive: -25.3%.
For `Cc1ccc(C)c(N2CCN(C(=O)C3CCN(S(=O)(=O)c4ccc5[nH]c(=O)oc5c4)CC3)CC2)c1`, the Potency was inconclusive: 0.0126 µM [cytotoxic, full curve].
In the case of `Cc1cc2cc(CNC(=O)c3cc4ccccc4o3)ccc2n1C`, the “activity change, negative = cell killing” value is reported as inactive: 4.3%.
In the case of `COc1ccc(-c2ccc(SCC(=O)N3CCOCC3)nn2)cc1`, the Potency is reported as inconclusive: 15.8 µM [cytotoxic, partial curve].
For `Cc1ccc2c(CC(=O)N3CCc4ccccc43)coc2c1`, the Potency was inconclusive: 12.6 µM [cytotoxic, partial curve].
With `Cc1ccccc1CNC(=O)c1cccc(NC(=O)c2nsc3ccccc23)c1` the Potency was inconclusive: 3.98 µM [cytotoxic, partial curve].
For `CC(C)OC(=O)CSc1nc2cccnc2n1C1CCCCC1`, the “activity change, negative = cell killing” value was inactive: 1.02%.
In the case of `Cc1nc2nc(SCC(=O)Nc3cccc(Cl)c3)nn2c(C)c1Cc1ccccc1`, the Potency is reported as inconclusive: 0.005 µM [cytotoxic, full curve, poor fit].
In the case of `CCOc1ccc(C(=O)Nc2ccc(Cl)cn2)cc1Cl`, the Potency is reported as inconclusive: 31.6 µM [cytotoxic, single point].
With `Cc1cc(C)c2c(n1)SCC(=O)N2CC(=O)Nc1ccc(C)c(C)c1` the Potency was inconclusive: 0.0316 µM [cytotoxic, full curve, poor fit].
In the case of `Nc1ncn(C2OC(CO)C(O)C2O)c(=O)n1` (configuration not stated), the Potency is reported as inconclusive: 12.6 µM [cytotoxic, single point].
With `COc1ccc(-c2cn3cccnc3n2)cc1NC(=O)COc1ccccc1` the “activity change, negative = cell killing” value was inactive: -21.2%.
For `CCOC(=O)CN(Cc1ccccc1)C(C(=O)NC1CCCCC1)c1ccc(C)cc1` (configuration not stated), the Potency was inconclusive: 25.1 µM [cytotoxic, single point].
In the case of `N#Cc1c(NC(=O)c2nc3ncccn3n2)sc2c1CCCCC2`, the Potency is reported as active: 12.6 µM.
For `O=C(CN1C(=O)c2ccccc2S1(=O)=O)N1CCc2ccccc21`, the Potency was active: 2 µM.
With `COc1ccc(N2CCN(CC(O)COc3ccc(C)cc3C)CC2)cc1` (configuration not stated) the Potency was inconclusive: 6.31 µM [cytotoxic, partial curve, poor fit].
With `Cc1ccc(-c2nc3cc(NC(=O)C(C)C)ccc3o2)cc1` the Potency was inconclusive: 10 µM [cytotoxic, partial curve].
With `CCOC(=O)c1ccc(NC(=O)CSc2nnc(CNC(=O)c3ccc(OC)cc3)n2CC)cc1` the Potency was inconclusive: 3.98 µM [cytotoxic, partial curve].
For `O=C(CCCn1c(=O)c2ccccc2n(Cc2ccc(F)cc2Cl)c1=O)NCCc1ccc(Cl)cc1`, the Potency was inconclusive: 0.316 µM [cytotoxic, full curve, poor fit].
With `COC(=O)c1ccccc1NC(=O)c1ccc2nc(Cc3ccccc3)oc2c1` the “activity change, negative = cell killing” value was inactive: -15.6%.
With `CC(=O)Nc1ccc(NC(=O)c2ccc(COc3ccc(Cl)cc3Cl)o2)cc1` the Potency was inconclusive: 15.8 µM [cytotoxic, single point].
For `Cc1nc2sccn2c(=O)c1CCN1CCC(=C(c2ccc(F)cc2)c2ccc(F)cc2)CC1`, the Potency was inconclusive: 15.8 µM [cytotoxic, single point].
For `Cc1occc1C(=O)Nc1ccc2c(c1)CCC2`, the Potency was inconclusive: 12.6 µM [cytotoxic, single point].
With `COc1ccc(Cn2nnc3c(=O)[nH]c(C4CCCN(C(=O)c5ccccc5)C4)nc32)cc1` (configuration not stated) the Potency was inconclusive: 14.1 µM [cytotoxic, single point].
In the case of `COc1ccc(-c2nc(C)c(CCNC(=O)C(=O)Nc3c(C)cccc3C)s2)cc1OC`, the activity change, negative = cell killing is reported as inconclusive: -31.9% [cytotoxic].
For `N#Cc1c(-n2ncnc2-c2ccc(Br)cc2)sc2c1CCCCC2`, the Potency was inconclusive: 10 µM [cytotoxic, partial curve].
In the case of `COc1ccccc1OCC(=O)Nc1ccc(S(=O)(=O)N2CCCCCC2)cc1`, the “activity change, negative = cell killing” value is reported as inactive: -4.37%.
For `CCOc1ccc(NC(=O)Nc2cccc(C)n2)cc1`, the Potency was inconclusive: 10 µM [cytotoxic, partial curve].
For `Cc1ccc(O)c(N=CC2=C(O)c3ccccc3C2=O)c1`, the Potency was inconclusive: 20 µM [cytotoxic, single point].
For `O=C(c1ccco1)N1CCN(S(=O)(=O)c2ccc(S(=O)(=O)NC3CCCC3)cc2)CC1`, the Potency was inconclusive: 31.6 µM [cytotoxic, single point].
In the case of `O=C(Nc1ccc(NC(=O)C2CC2)nc1)c1ccccn1`, the Potency is reported as active: 6.31 µM.
With `COc1ccccc1C(=O)Nc1ccc2c(c1)nc(CCNC(C)=O)n2C` the Potency was active: 12.6 µM.
In the case of `O=C(CSc1ccc2nnc(-c3ccc(F)cc3)n2n1)N1CCOCC1`, the “activity change, negative = cell killing” value is reported as inactive: 3.02%.
In the case of `Cc1cccc(OCCSc2nc3ccc(NC(=O)COc4ccccc4C)cc3s2)c1`, the Potency is reported as inconclusive: 7.94 µM [cytotoxic, partial curve].
For `CN1CCN(S(=O)(=O)c2ccc(SCCOc3ccccc3)nc2)CC1`, the “activity change, negative = cell killing” value was inactive: -16.1%.
In the case of `Cc1cn2c(=O)cc(COC(=O)c3cccc(NC(=O)COc4ccccc4)c3)nc2s1`, the “activity change, negative = cell killing” value is reported as inactive: 4.89%.
In the case of `Cc1cc(C)n2nc(-c3ccc(Cl)cc3)nc2n1`, the Potency is reported as inconclusive: 1.26 µM [cytotoxic, partial curve].
For `COc1ccc(OC)c(NC(=O)c2oc3c(c2C)-c2nn(Cc4ccc(Cl)cc4)cc2CC3)c1`, the Potency was inconclusive: 25.1 µM [cytotoxic, single point].
With `COc1cccc(CNC(=O)c2ccc3c(c2)nc2n3CCC(C)C2)c1` (configuration not stated) the Potency was inconclusive: 10 µM [cytotoxic, partial curve].
With `O=C1CCCN1CCC1CCN(C(=O)Nc2ccccc2)CC1` the “activity change, negative = cell killing” value was inactive: -0.598%.
With `CCN(CC)C(=O)C1CCCN(c2ncnc3c2c(-c2ccccc2)cn3-c2cccc(C)c2)C1` (configuration not stated) the Potency was inconclusive: 0.005 µM [cytotoxic, full curve, poor fit].
In the case of `c1cncc(-c2nc(N3CCCCCC3)c3ccccc3n2)c1`, the “activity change, negative = cell killing” value is reported as inactive: 9.89%.
For `CCc1ccc2occ(CC(=O)Nc3ccc(C)c(C)c3)c2c1`, the Potency was inconclusive: 22.4 µM [cytotoxic, single point].
In the case of `Cc1sc2ncn(CC(=O)N3CCN(c4ccccc4)CC3)c(=O)c2c1S(=O)(=O)N1CCC(C)CC1`, the “activity change, negative = cell killing” value is reported as inactive: 33.6%.
With `O=c1c(N2CCN(c3cccc(Cl)c3)CC2)csc2ccc(Cl)cc12` the Potency was inconclusive: 12.6 µM [cytotoxic, single point].
